The other results are listed elsewhere or left out.
System: T1, C. trachomatis L2/434/Bu expressing GFP (CTL2-GFP)
T1 construct: L2/434/Bu GFP intracellular growth in HeLa cells
Design: species or system HeLa; C. trachomatis total inclusion area by high-content imaging, normalised to DMSO
Settings: total inclusion area; 28.5 h, 10 µM; inhibitor
Outline: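 After bulk GFP and resorufin fluorescence reads, cells were fixed, stained with Hoechst and imaged by high-content microscopy. Inclusion area and number (GFP) stood in for chlamydial growth, nuclei count (Hoechst) for host cell viability. MICs were derived as for the bulk readout.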

| Structure (SMILES) | % of control remaining |
| --- | --- |
| O=C1CCCN1CC#CCN1CCN(Cc2ccccc2)CC1 [CBK023770C] | 80.3524 |
| CC1(C)C(=O)NCCN1C(=O)Cn1cnc2ccccc21 [CBK281856] | 102.015 |
| CN1CCN(c2nc(-c3ccc(-c4ccccc4)cc3)cnc2N)CC1 [CBK063421] | 73.6754 |
| NC(=O)c1c(NC(=O)CSc2nnc(-c3ccccc3)n2CC2CCCO2)sc2c1CCC2 (centres unmarked) [CBK084789] | 90.6617 |
| Cc1cc(NC(=O)C(C)OC(=O)C(NC(=O)OC(C)(C)C)c2ccccc2)no1 (centres unmarked) [CBK170398] | 20.3788 |
| Cc1cc(N2CCOC(c3nc(C)n[nH]3)C2)c2ccc(F)c(F)c2n1 (centres unmarked) [CBK306018] | 15.8753 |
| CC(=O)Nc1cccc(NC(=O)N2CCNC(=O)C2)c1 [CBK155863] | 83.5456 |
| COc1ccc(C(NC(=O)N2CCN(C(=O)NCc3ccccc3Cl)CC2)c2ccccc2C)cn1 (centres unmarked) [CBK081471] | 71.5236 |
| Cc1cc(C)cc(CC(C)Cc2nc3ccccc3[nH]2)c1 (centres unmarked) [CBK262432] | 89.0227 |
| Cc1ccc(S(=O)(=O)N2CCN(C(=O)C3C4C=CC(C4)C3C(=O)O)CC2)cc1 (centres unmarked) [CBK286944] | 100.55 |
| Cc1ccc(C2=CCN(CC(N)=O)CC2)o1 [CBK283570] | 85.788 |
| CN(CC(=O)Nc1ccc(N(C)C)cc1)Cc1ccc(F)cc1 [CBK295188] | 114.806 |
| COc1cc(CNc2nccnc2-c2cccc(CO)c2)cc(OC)c1 [CBK037403] | 102.777 |
| O=S(=O)(Nc1cccc2ncccc12)c1ccc(OC(F)(F)F)cc1 [CBK044490] | 78.3823 |
| COCCCNC(=O)C1CCCN(c2nc3c(-c4ccccc4)csc3c(=O)[nH]2)C1 (centres unmarked) [CBK215498] | 116.665 |
| CN(CCN1CCCCC1)C(=O)c1ccccc1Cn1cccn1 [CBK281904] | 97.7235 |
| O=C(O)CCCC(=O)N1CCN(C(=O)c2sc3cc(Cl)ccc3c2Cl)CC1 [CBK286973] | 100.629 |
| OB(O)c1ccc(Oc2ccc(B(O)O)cc2)cc1 [CBK261159] | 89.38 |
| COCCNc1nccnc1-c1ccccc1F [CBK038044] | 109.45 |
| Cn1ccnc1C1(O)CCN(C(=O)CC2CCCCC2)CC1 [CBK283647] | 88.2985 |
| CC(C)(C)OC(=O)N1CCN(c2ccc(Cl)nn2)CC1 [CBK113381] | 92.983 |
| O=[N+]([O-])c1ccc2nc(Sc3nc4ccccc4[nH]3)sc2c1 [CBK263356] | 104.535 |
| O=C(NCc1nc2ccccc2[nH]1)c1cc(-c2ccc(Cl)cc2)cnc1NCc1ccc2c(c1)OCO2 [CBK106377] | 67.7714 |

From article PMC12040169 (PLOS Biology, 2025)
